According to the RNAGym collection of RNA variant scans (doi:10.7554/elife.90254):
The source gives no read counts; variants with many changes may rest on few reads.

B1: LINE1-mini (parent)
chain: GGCAGAGCUCAACACAGCGUGGCAAAGUGGCUGUGGCUAGACUGCC

Variants of: B1
Assay: self-cleavage, relative activity (ratio to wild type); higher = more cleavage; in vitro, sequencing; the parent is a self-cleaving ribozyme

Variant | self-cleavage
A11G U20A G33U C45A C46A | 0.01
A11U A12G G27C C42A | 0
A11U A26C U38C | 0.03
A11G G29C C31U A39C | 0.01
A11U A14C A26C U32C U38A | 0.01
A11U U32A G36U | 0.13
A12C A41C C42G | 0
A12C A41C C42A | 0.01
A11U A39G C42U | 0.04
A11U A12G C37A | 0.03
A11U G27C G29U G35C | 0.04
A12C C13A A16U U34C | 0.11
A12C A24U A26C | 0.02
A11U A12C G29C C42G | 0
A11U A16U C42A G44U | 0.04
A12C C13A G19A U34A G35U | 0.03
A11U G21U A24C G27U | 0.07
A12C A14C C18U G19C | 0.01
A11G U28C G33C C45G | 0.02
A11G G22U U34C G35C C46G | 0.01
A11G U28A C45U | 0.05
A11G U28A C45G | 0.01
A11U C13A G19U C31A | 0.02
A11G U28C C46A | 0

Variant | self-cleavage
A11U G17U C18A A25C A41G C42A | 0
A11G G33C G44A | 0.01
A11U G33U C37U C45A | 0.02
A12C A26C U34C | 0.02
A11U C18U A25G C37G | 0
A11G G33C A41G | 0.03
A11G G19A G36C | 0.01
A11U C37U U43A | 0.01
A12C A14C G17U C23U G36A U38A C42U G44A | 0.02
A11U G29U C45A | 0.03
A12C A14C C18G C42G | 0.03
A11U G17C G22A | 0.03
A11G U20A A26U | 0.02
A11U G35A C45G | 0.01
A11U G17A C23U C45U | 0.05
A11G G19U G30A | 0.02
A11U A24G C31G | 0.01
A11U A16G G17U | 0.02
A11U G21U C31A G44U | 0.01
A11U A16G C18G | 0
A11U C23A U38C C42U C46A | 0.01
A11G G19C G33C | 0.01
A11U A14U C31U | 0
A11G U43C C45A | 0

Variant | self-cleavage
A11U A14U U32C G44A | 0.02
A11U C15A G19U U20C G27U C37A | 0.01
A11U A26C U32C G36U | 0.01
A11U C15A G22C G27C U28G G33C A39U | 0.02
A12C A14G A39G | 0.01
A11U C15U A16U G44A | 0.02
A11G G22A A24G | 0.01
A11U C23U A24C C45A | 0.21
A12C A26U C45G | 0.03
A11U G19C G22C | 0.03
A11G G27A C45A | 0.06
A11U G17A C23U G40U | 0.01
A11G G36U C46A | 0.03
A11U C13A A14G C37A | 0.01
A11U A16G G35U C42A | 0.03
A11U G29A C31U U38A | 0.07
A11U G35U U38C C46A | 0.06
A11U A14G A16C U34A | 0.02
A11U A12U C18G A24G | 0.06
A11U A25C G36C | 0.02
A11U A24U U32C U43A | 0
A11U C13A G19U A26U U34A G36U U38A | 0.01
A11G G19U C31G | 0.04
A11U C13G A14C | 0.01

Variant | self-cleavage
A11U C15A C42A | 0.01
A11G G44U C46G | 0.04
A11U G21A G22U U32A | 0.01
A11G G19U C23G G33C | 0
A11U A24U G36A C37U | 0.01
A11U G35A G40A | 0.03
A11U G17A G22U C23U A39G A41C | 0.01
A11G G33U C45U | 0.01
A12C A14G C15G C31A | 0.04
A11G G22A C23A U28C G40C G44A | 0.01
A11G U34G G36U | 0.01
A11U G35A C42U | 0.04
A11U A26C G36A | 0
A12C A14U A25U | 0
A12C A39C A41C | 0
A11U G29U G36U | 0
A11U A12G C13A G19A G29A G36A C37U | 0.02
A12C A25C G30C | 0.01
A11U G17U G19A C23A C31G | 0.01
A11U C23U A24C G29U U32A | 0.04
A11G G33A C46G | 0.06
A11G U34G G40U | 0
A11G U20C G30C A39C | 0.01
A11U G19C G21U G30C G36U | 0.01

Variant | self-cleavage
A11U C18A C42A | 0.01
A11G G22U C42U | 0.02
A11G U32G G40C A41C | 0
A11G U34C G36U | 0
A12C A14C C31G | 0
A11G U20A G35C | 0.01
A11G G19C G40A | 0.01
A11U G29A C46U | 0.23
A11G U28G G30A | 0.05
A11U C18A C37A | 0.01
A11U U20G A26U G36C | 0.02
A11U A16G U20G C23A | 0.01
A12C A25G G29A C31U | 0.03
A11U A24G G29A G35U A41C | 0.02
A11U A14C G33C | 0.02
A11U U32A A41G | 0.01
A11U G22A A24U | 0.15
A11G U28C U43C | 0.01
A11G G21U U38C | 0.02
A11U C13U C15U C18A G19U | 0.01
A11U G22A G35C | 0.01
A11G G19U G44U | 0.03
A11U G36U G40C G44U | 0.01
A11U A16G G30U A39G | 0.01

Variant | self-cleavage
A11U G27A C31G | 0.03
A11U A16C G29A | 0.03
A11U G19A G27U G35C | 0.01
A11U C13A C15G A24U A25U G36U A39U | 0.02
A11G G30U G33U A39U | 0.01
A11G G22C A26C G27U | 0.01
A11U G21U G33C C37U | 0
A11U A12C A14G U20A G22C C23A U28C | 0.01
A11U C18U C23U G33U | 0.01
A11U U28C C31A | 0.24
A11G G19C G21A | 0.02
A11G U20C G29U C31U | 0.02
A11U C31U G44A | 0.04
A11U A24U A26C G29C | 0.13
A11U A16G U32A G35A A41U | 0.02
A11G G21A G33U G35A U43A G44A | 0
A11U G27A G30U G35A U38A U43C C46U | 0.01
A11G G21U G27U C46A | 0.02
A12C A14U C23G U28G G29U | 0.03
A11U C31U C37U C42U | 0.01
A12C C13A C37U | 0.03
A12C A25C C37A | 0.01
A11U G35U C37U | 0.05
A12C A16C G35A C46U | 0.03

Variant | self-cleavage
A12C A16G C23G A24U | 0.02
A11U A25C G29A U38C | 0.06
A11U C23A U34G | 0.02
A11G G35U U38G | 0.01
A11G G35U U38A | 0.02
A12C A24G U34G | 0
A11U G19U G22A C42A | 0.02
A11G G30A G33C U43A | 0.03
A12C A25C G27A G29A | 0.01
A12C A24G U34C G35U | 0.03
A11U C13A A16U C31A | 0.01
A11G G27U G36A | 0.03
A11U G29A G35A | 1.47
A12C A16U A24U U28G | 0
A11G U20C G22A U28A | 0
A11U A12G G29U | 0
A11G G29A C31U G35A A41C | 0
A12C A14G G17A G36U C37A | 0.02
A12C A14U C18A G22U | 0.04
A11G G29A C31G G40C | 0.01
A11G U20C G22U G29U | 0.02
A11U C15A A41G | 0.02
A11U G30C A41C | 0.01
